No constants are given. Whether binding was seen depends on the method and setting. For part of these data: In cells and extracts the contact can be indirect. Some binding calls cover weakened binding; strength is not graded here. For part of these data: Where a sequence is shown, tags or fusion partners need not be part of it.

Protein sequences, listed by entry. Tags and fused reporters are not part of them. Residues count along the entry.
UniProt P00830, residues 34-511: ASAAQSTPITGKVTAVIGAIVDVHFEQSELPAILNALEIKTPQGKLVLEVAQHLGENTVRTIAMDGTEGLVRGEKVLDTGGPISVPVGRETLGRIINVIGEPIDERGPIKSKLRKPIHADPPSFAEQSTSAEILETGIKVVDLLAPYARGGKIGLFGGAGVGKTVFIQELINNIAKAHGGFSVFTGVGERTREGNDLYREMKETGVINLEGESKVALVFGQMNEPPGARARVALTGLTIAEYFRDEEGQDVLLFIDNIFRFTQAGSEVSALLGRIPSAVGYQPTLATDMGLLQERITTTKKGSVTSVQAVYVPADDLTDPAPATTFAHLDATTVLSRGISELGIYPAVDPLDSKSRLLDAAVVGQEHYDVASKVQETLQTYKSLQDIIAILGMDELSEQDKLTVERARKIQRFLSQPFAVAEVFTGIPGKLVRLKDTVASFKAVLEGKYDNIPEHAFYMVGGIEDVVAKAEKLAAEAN
UniProt P0CS90, residues 24-654: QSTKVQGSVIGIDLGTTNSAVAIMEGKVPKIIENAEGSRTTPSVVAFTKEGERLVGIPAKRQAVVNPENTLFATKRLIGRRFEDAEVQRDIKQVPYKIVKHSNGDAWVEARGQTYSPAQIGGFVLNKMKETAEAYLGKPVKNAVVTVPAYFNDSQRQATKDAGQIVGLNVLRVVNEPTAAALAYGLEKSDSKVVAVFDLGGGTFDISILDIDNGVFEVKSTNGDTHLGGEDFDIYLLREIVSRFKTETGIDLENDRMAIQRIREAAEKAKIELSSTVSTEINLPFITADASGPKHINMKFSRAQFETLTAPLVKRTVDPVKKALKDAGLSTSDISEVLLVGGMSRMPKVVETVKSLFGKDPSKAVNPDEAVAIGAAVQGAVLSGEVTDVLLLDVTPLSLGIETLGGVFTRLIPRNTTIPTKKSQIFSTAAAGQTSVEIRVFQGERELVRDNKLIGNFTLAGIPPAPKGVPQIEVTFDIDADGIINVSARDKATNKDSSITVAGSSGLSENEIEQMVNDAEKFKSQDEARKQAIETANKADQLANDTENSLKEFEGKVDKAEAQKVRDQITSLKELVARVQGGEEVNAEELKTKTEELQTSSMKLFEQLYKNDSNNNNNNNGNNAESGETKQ

In assay [1] the target is T1, Tim44(43–431), recombinant full-length mature Tim44 (yeast (S. cerevisiae)) (UniProt Q01852).
T1 sequence: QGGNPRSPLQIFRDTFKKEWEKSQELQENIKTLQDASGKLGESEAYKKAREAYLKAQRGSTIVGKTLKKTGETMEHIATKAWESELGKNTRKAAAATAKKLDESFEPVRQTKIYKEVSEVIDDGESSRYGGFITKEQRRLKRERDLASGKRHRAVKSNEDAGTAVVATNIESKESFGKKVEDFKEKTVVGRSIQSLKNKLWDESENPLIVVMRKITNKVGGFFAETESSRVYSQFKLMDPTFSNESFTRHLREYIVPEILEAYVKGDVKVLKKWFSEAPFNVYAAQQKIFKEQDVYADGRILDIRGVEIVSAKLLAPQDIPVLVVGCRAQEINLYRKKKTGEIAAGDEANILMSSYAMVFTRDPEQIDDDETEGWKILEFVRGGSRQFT
Nature of the assay: pull-down; purified Tim44 constructs covalently coupled to CNBr-Sepharose beads; wild-type mitochondria solubilized with 0.5% Triton X-100 in 20 mM Tris/HCl pH 8.0, 80 mM KCl, 10% glycerol at 1 mg/mL; 30 min at 4°C; immunoblotting; only the target purified. (Immunoblotting shows a protein as a band on a membrane.)

Assay [2] deals with T2, Tim16(Pam16) (S. cerevisiae (endogenous in yeast mitochondria)) (UniProt P42949).
T2 sequence: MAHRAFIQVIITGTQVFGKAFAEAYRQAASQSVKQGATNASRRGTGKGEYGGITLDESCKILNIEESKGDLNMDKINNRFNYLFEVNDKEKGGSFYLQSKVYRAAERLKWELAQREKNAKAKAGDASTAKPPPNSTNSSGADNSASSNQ
Nature of the assay: cross-linking; intact mitochondria from FL and N+C cells incubated with the amino group-specific crosslinker DSG; mitochondrial ATP levels altered beforehand where indicated; immunoblotting with antibodies to Tim16 or Tim23.

The target of assay [3] is T3, Tim44(264–431), recombinant core of the C-terminal domain of Tim44 (yeast (S. cerevisiae)) (UniProt Q01852).
T3 sequence: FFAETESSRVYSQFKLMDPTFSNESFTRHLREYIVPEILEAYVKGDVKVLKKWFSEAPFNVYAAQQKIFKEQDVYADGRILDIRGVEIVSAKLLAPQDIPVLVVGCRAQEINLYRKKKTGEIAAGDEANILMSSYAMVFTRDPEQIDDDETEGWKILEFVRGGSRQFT
Description: pull-down; purified Tim44 constructs covalently coupled to CNBr-Sepharose beads; wild-type mitochondria solubilized with 0.5% Triton X-100 in 20 mM Tris/HCl pH 8.0, 80 mM KCl, 10% glycerol at 1 mg/mL; 30 min at 4°C; immunoblotting; only the target purified.

Assay [4] concerns the target T4, Tim44(43–209), recombinant N-terminal domain of Tim44 (yeast (S. cerevisiae)) (UniProt Q01852).
T4 sequence: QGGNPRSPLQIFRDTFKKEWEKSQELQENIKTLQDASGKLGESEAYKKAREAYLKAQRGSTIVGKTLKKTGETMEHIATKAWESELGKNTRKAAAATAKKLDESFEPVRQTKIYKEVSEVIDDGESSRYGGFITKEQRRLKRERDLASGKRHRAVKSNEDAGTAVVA
The description is as above.

Assay [5] addresses T2, Tim16(Pam16) (S. cerevisiae (endogenous in yeast mitochondria)). Nature of the assay: native gel or EMSA; BN-PAGE of digitonin-solubilized mitochondria from FL and N+C cells; immunoblotting. In general terms: Mobility shift assays separate free from complexed probe on a gel.
Assay [6] has the same target. Description: co-IP; mitochondria from FL and N+C cells solubilized with digitonin; affinity-purified antibodies to Tim17, Tim23 and Tim16 prebound to Protein A-Sepharose; preimmune antibodies as negative control; immunoblotting.
The target of assay [7] is T5, Tim23 (S. cerevisiae (endogenous in yeast mitochondria)) (UniProt P32897).
T5 sequence: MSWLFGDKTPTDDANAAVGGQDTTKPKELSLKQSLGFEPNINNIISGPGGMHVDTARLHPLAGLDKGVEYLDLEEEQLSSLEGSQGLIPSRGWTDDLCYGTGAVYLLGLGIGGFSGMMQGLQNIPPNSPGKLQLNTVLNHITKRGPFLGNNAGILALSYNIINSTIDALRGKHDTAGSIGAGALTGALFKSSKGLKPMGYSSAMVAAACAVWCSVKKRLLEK
Described as above.

In assay [8] the target is T6, Tim17 (S. cerevisiae (endogenous in yeast mitochondria)) (UniProt P39515).
T6 sequence: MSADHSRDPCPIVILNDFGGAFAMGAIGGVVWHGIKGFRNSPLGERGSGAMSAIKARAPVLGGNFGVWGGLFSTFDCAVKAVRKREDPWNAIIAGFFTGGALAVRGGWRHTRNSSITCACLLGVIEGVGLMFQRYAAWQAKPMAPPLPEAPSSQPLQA
Described as above.

In assay [9] the target is T7, Tim16(Pam16) (S. cerevisiae (endogenous in yeast mitochondria)), P42949.
T7 chain: T2 sequence
Description: cross-linking; intact mitochondria from FL and N+C cells incubated with the amino group-specific crosslinker DSG; mitochondrial ATP levels altered beforehand where indicated; immunoblotting with antibodies to Tim16 or Tim23. The conditions noted are these: remark: other sources report otherwise.

Assay [10] concerns the target T8, His6-Tim44(43–263) (yeast (S. cerevisiae)) (UniProt Q01852).
T8 sequence: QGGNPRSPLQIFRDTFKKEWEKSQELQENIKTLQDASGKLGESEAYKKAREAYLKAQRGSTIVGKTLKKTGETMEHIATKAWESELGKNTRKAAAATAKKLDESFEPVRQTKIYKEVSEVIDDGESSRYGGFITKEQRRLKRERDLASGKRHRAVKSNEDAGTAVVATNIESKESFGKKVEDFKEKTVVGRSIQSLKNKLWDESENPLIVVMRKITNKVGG
Description: pull-down; purified His6-Tim44(43–263) incubated with purified Tim44(211–431) for 5 min at 25°C, then NiNTA-agarose beads for 30 min at 4°C; low-salt (20 mM Tris/HCl, 50 mM NaCl, 10 mM imidazole, pH 8.0) or high-salt buffer (300 mM NaCl); eluted with 300 mM imidazole; Coomassie staining; both purified.

Assay [11] concerns the target T5, Tim23 (S. cerevisiae (endogenous in yeast mitochondria)). Nature of the assay: cross-linking; intact mitochondria from FL and N+C cells incubated with the amino group-specific crosslinker DSG; mitochondrial ATP levels altered beforehand where indicated; immunoblotting with antibodies to Tim16 or Tim23.
The target of assay [12] is T9, His9-tagged N-terminal domain of Tim44 in His9N+C mitochondria (yeast (S. cerevisiae)) (UniProt Q01852).
T9 sequence: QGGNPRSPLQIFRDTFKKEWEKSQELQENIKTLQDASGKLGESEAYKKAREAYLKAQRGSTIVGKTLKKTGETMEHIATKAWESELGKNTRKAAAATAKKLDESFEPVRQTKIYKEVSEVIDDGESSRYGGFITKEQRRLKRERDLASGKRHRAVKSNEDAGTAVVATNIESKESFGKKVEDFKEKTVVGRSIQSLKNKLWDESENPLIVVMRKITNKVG
Description: pull-down; His9N+C (and N+C) mitochondria solubilized with digitonin-containing buffer, NiNTA-agarose beads at 4°C; immunoblotting with antibodies to Tim44.

Assay [13] deals with T6, Tim17 (S. cerevisiae (endogenous in yeast mitochondria)). Description: native gel or EMSA; BN-PAGE of digitonin-solubilized mitochondria from FL and N+C cells; immunoblotting.
The target of assay [14] is T10, Tim23 (S. cerevisiae (endogenous in yeast mitochondria)), P32897.
T10 chain: T5 sequence
Description: cross-linking; intact mitochondria from FL and N+C cells incubated with the amino group-specific crosslinker DSG; mitochondrial ATP levels altered beforehand where indicated; immunoblotting with antibodies to Tim16 or Tim23. The note with it: remark: other sources report otherwise.

For “β subunit of FoF1 ATPase (from UniProt P00830 34-511)”, the binding result in [1] is recorded as “no binding”. As for mtHsp70 (from UniProt P0CS90 24-654), the binding result in [2] is recorded as “binds”; in assay [3], “binds weakly”; in assay [4], “binds”; in [1], “binds”.

B1: Tim14(Pam18) (protein, UniProt Q07914 1-168)
chain: MSSQSNTGNSIEAPQLPIPGQTNGSANVTVDGAGVNVGIQNGSQGQKTGMDLYFDQALNYMGEHPVITGFGAFLTLYFTAGAYKSISKGLNGGKSTTAFLKGGFDPKMNSKEALQILNLTENTLTKKKLKEVHRKIMLANHPDKGGSPFLATKINEAKDFLEKRGISK
B1: the binding result in [5], in assay [6], in assay [7] and in assay [2] was “binds” each time.

B2: Tim17 (protein, UniProt P39515 1-158)
chain: T6 sequence
On to B2, for which the binding entry in assay [6] and in assay [7] was “binds” each time.

B3: Tim16(Pam16) (protein, UniProt P42949 1-149)
chain: T2 sequence
For the molecule B3, the binding result in [8] and in [7] was “binds” throughout.

B4: Tim16(Pam16), P42949 1-149 (protein)
chain: T2 sequence
Turning to B4, in assay [9], the binding result is recorded as “binds”.

B5: Tim44(211–431) (protein)
chain: NIESKESFGKKVEDFKEKTVVGRSIQSLKNKLWDESENPLIVVMRKITNKVGGFFAETESSRVYSQFKLMDPTFSNESFTRHLREYIVPEILEAYVKGDVKVLKKWFSEAPFNVYAAQQKIFKEQDVYADGRILDIRGVEIVSAKLLAPQDIPVLVVGCRAQEINLYRKKKTGEIAAGDEANILMSSYAMVFTRDPEQIDDDETEGWKILEFVRGGSRQFT
With B5, the binding result in assay [10] was “no binding”.

B6: Pam17 (protein, UniProt P36147 15-197)
chain: ASQPSVTAAALRSTATTLPLRSYSQPASLQDSSILTWSDFFKLRKQQRRINVGSSLFTALLGCNVSWAYLSTMEIDPTQMLFGFDPLTVISAGIIASGALGYLLGPIVGSQVFKLSHNQQLAQFNNKNKEFLKHIINNRVDASSQSFSNPVPDYYGEKIGSLKEYKQWLRDCHAYAKKAKEFL
In the case of B6, in [11], the binding entry is reported as “binds”.

B7: C-terminal domain of Tim44 with helices A1 and A2, Tim44(210–431), in N+C mitochondria (domain or fragment, UniProt Q01852 210-431)
chain: TNIESKESFGKKVEDFKEKTVVGRSIQSLKNKLWDESENPLIVVMRKITNKVGGFFAETESSRVYSQFKLMDPTFSNESFTRHLREYIVPEILEAYVKGDVKVLKKWFSEAPFNVYAAQQKIFKEQDVYADGRILDIRGVEIVSAKLLAPQDIPVLVVGCRAQEINLYRKKKTGEIAAGDEANILMSSYAMVFTRDPEQIDDDETEGWKILEFVRGGSRQFT
With B7, the binding result in assay [12] is “no binding”.

B8: Tim23 (protein, UniProt P32897 1-222)
chain: T5 sequence
For B8, the binding entry in assay [13], in [6] and in assay [8] was “binds” each time.

B9: Tim23, P32897 1-222 (protein)
chain: T5 sequence
For the molecule B9, the binding entry in assay [14] was “binds”.
